{"source": "the supplement of paper PMC12645437", "about": "“Orthogonal IMiD-Degron Pairs Induce Selective Protein Degradation in Cells” (ACS Chemical Biology, 2025)", "note": "The other results are listed elsewhere or left out.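 Also: jurkat cells carrying a lentiviral library of mutant zinc finger degrons fused to EGFP plus mCherry, mCherry+ cells FACS sorted, degron abundance counted by next-generation sequencing.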"}
{"molecular_target": "no compound (DMSO)", "assay": "log2 fold change of degron read counts, EGFP-low vs EGFP+ sorted cells; higher = lower degron-EGFP level without compound (poor expression or instability)", "conditions": "compound: DMSO control; 18 h"}
{"sequence": "FMCEQCGAEFTQKGNLLRHIKL", "log2 fold change of degron read counts": -2.99}
{"sequence": "FVCPICGREFTQKGNLLRHIKL", "log2 fold change of degron read counts": -1.01}
{"sequence": "FECEICGHWFTQKGNLLRHIKL", "log2 fold change of degron read counts": -1.04}
{"sequence": "LDCEICGFECTQKGNLLRHIKL", "log2 fold change of degron read counts": -0.25}
{"sequence": "LRCNQCGFSCTQKGNLLRHIKL", "log2 fold change of degron read counts": 1.05}
{"sequence": "FQCNQCGRPFTQKGNLLRHIKL", "log2 fold change of degron read counts": -0.585}
{"sequence": "FMCPICGATFTQKGNLLRHIKL", "log2 fold change of degron read counts": -0.124}
{"sequence": "FLCDQCGAQFTQKGNLLRHIKL", "log2 fold change of degron read counts": -2.23}
{"sequence": "FWCDICGAMFTQKGNLLRHIKL", "log2 fold change of degron read counts": -0.0369}
{"sequence": "FHCNQCGAWFTQKGNLLRHIKL", "log2 fold change of degron read counts": 0.164}
{"sequence": "FCCEICGHAFTQKGNLLRHIKL", "log2 fold change of degron read counts": -2.46}
{"sequence": "FMCDQCGAYFTQKGNLLRHIKL", "log2 fold change of degron read counts": -0.689}
{"sequence": "FMCEICGHIFTQKGNLLRHIKL", "log2 fold change of degron read counts": -0.455}
{"sequence": "FLCPICGAQFTQKGNLLRHIKL", "log2 fold change of degron read counts": -0.584}
{"sequence": "FDCNQCGHKFTQKGNLLRHIKL", "log2 fold change of degron read counts": 0.287}
{"sequence": "FMCNQCGHWFTQKGNLLRHIKL", "log2 fold change of degron read counts": 0.616}
{"sequence": "FSCPICGRQFTQKGNLLRHIKL", "log2 fold change of degron read counts": -0.179}
{"sequence": "FHCPICGHTFTQKGNLLRHIKL", "log2 fold change of degron read counts": -0.147}
{"sequence": "FSCEICGRPFTQKGNLLRHIKL", "log2 fold change of degron read counts": -1.19}
{"sequence": "FECEICGRTFTQKGNLLRHIKL", "log2 fold change of degron read counts": -2.03}
{"sequence": "FSCPICGHDFTQKGNLLRHIKL", "log2 fold change of degron read counts": -0.878}
{"sequence": "FACEICGHHFTQKGNLLRHIKL", "log2 fold change of degron read counts": -0.907}
{"sequence": "FMCEICGRFFTQKGNLLRHIKL", "log2 fold change of degron read counts": -0.587}
{"sequence": "LLCNQCGFWCTQKGNLLRHIKL", "log2 fold change of degron read counts": 1.98}
{"sequence": "FKCEVCGAFFTQKGNLLRHIKL", "log2 fold change of degron read counts": -1.05}
{"sequence": "FSCNVCGASFTQKGNLLRHIKL", "log2 fold change of degron read counts": -0.612}
{"sequence": "FCCDVCGAFFTQKGNLLRHIKL", "log2 fold change of degron read counts": -0.229}
{"sequence": "FICPICGARFTQKGNLLRHIKL", "log2 fold change of degron read counts": -0.386}
{"sequence": "FRCEICGAKFTQKGNLLRHIKL", "log2 fold change of degron read counts": -0.789}
{"sequence": "FECPQCGADFTQKGNLLRHIKL", "log2 fold change of degron read counts": -1.83}
{"sequence": "FTCDQCGANFTQKGNLLRHIKL", "log2 fold change of degron read counts": -1.88}
{"sequence": "FFCSVCGHLFTQKGNLLRHIKL", "log2 fold change of degron read counts": 1.04}
{"sequence": "FDCPVCGAQFTQKGNLLRHIKL", "log2 fold change of degron read counts": -1.01}
{"sequence": "FLCSVCGHGFTQKGNLLRHIKL", "log2 fold change of degron read counts": -1.1}
{"sequence": "FWCPVCGAMFTQKGNLLRHIKL", "log2 fold change of degron read counts": 1.05}
{"sequence": "FGCEICGRLFTQKGNLLRHIKL", "log2 fold change of degron read counts": -0.269}
{"sequence": "FICDQCGARFTQKGNLLRHIKL", "log2 fold change of degron read counts": -1.06}
{"sequence": "FACEVCGAYFTQKGNLLRHIKL", "log2 fold change of degron read counts": -0.198}
{"sequence": "LYCNQCGFVCTQKGNLLRHIKL", "log2 fold change of degron read counts": 1.16}
{"sequence": "FHCNQCGRWFTQKGNLLRHIKL", "log2 fold change of degron read counts": 0.667}
{"sequence": "FRCEICGRMFTQKGNLLRHIKL", "log2 fold change of degron read counts": -0.231}
{"sequence": "FVCNQCGHVFTQKGNLLRHIKL", "log2 fold change of degron read counts": -0.877}
{"sequence": "FQCDQCGAGFTQKGNLLRHIKL", "log2 fold change of degron read counts": -2.32}
{"sequence": "FMCNQCGHTFTQKGNLLRHIKL", "log2 fold change of degron read counts": -0.117}
{"sequence": "FFCEICGACFTQKGNLLRHIKL", "log2 fold change of degron read counts": -0.305}
{"sequence": "FHCEICGACFTQKGNLLRHIKL", "log2 fold change of degron read counts": -1.42}
{"sequence": "FWCNQCGASFTQKGNLLRHIKL", "log2 fold change of degron read counts": -0.114}
{"sequence": "FQCPICGRHFTQKGNLLRHIKL", "log2 fold change of degron read counts": 0.273}
{"sequence": "LCCPICGFQCTQKGNLLRHIKL", "log2 fold change of degron read counts": 0.282}
{"sequence": "FGCPICGRGFTQKGNLLRHIKL", "log2 fold change of degron read counts": 0.0725}
